From the supplement of paper PMC10126150
Sequences with one replicate were seen in a single cluster, so their values are uncertain.

Tested on: ATP
Test: switch fluorescence ratio, 500 uM ATP over buffer (Cy3 cluster intensity, sum of 5 cycles each) (fold (ratio)); higher = stronger signal-on switching upon ATP binding; sequences stand for … in TCGTCGGCAGCGTCAGATGTGTATAAGAGACAGTTTTTTTTTTTTTTTTTTTTTTTTT…TC
Settings: aptamer strand: ATP DNA aptamer (quencher-CACCTGGGGGAGTATTGCGGAGGAAGG + anchor), 100 nM annealed; ATP concentration: 500 uM; one replicate
Summary of the method: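 Imaging in selection buffer was followed by imaging after 15 min with 500 uM ATP at 22 °C, for Cy3-labelled switching-strand clusters annealed to 100 nM quencher-labelled ATP aptamer on a modified Illumina MiSeq flow-cell. Five of these buffer/ATP cycles ran, separated by NaOH stripping and re-annealing. The fluorescence ratio per cluster is summed target-cycle over summed buffer-cycle Cy3 intensity, averaged per switch-domain sequence; clusters outside 100-1000 RFU were removed.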
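Further: ATP exposure 15 min at 22 °C before imaging.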

| Sequence | switch fluorescence ratio |
| --- | --- |
| TATTCGTGCG | 0.969 |
| ATCGGCAAGG | 1.17 |
| CAGAACGCTA | 5.22 |
| CGCCGTTGTA | 1.01 |
| GGAGTAAGCC | 1.05 |
| TGTGGTCATT | 1.11 |
| GTCGAGAGT | 0.982 |
| CGATAAGTAC | 1.67 |
| ACACTGAATA | 1.05 |
| CCCGTCTTAG | 0.966 |
| CAGAATACTA | 1.04 |
| ATCTTAGGTC | 1 |
| CGTTAGGTAA | 0.984 |
| GCGAGTAAGA | 1.04 |
| TATTGGCCTG | 1.01 |
| GTTTGAACAG | 1.02 |
| CTTCAATGGG | 1.08 |
| CGTCTTTCGC | 1.05 |
| AACGGCATAT | 1.1 |
| TTTGTCCAGG | 1.25 |
| AGAGGGTGTT | 1.07 |
| AGCAAGACAA | 1.82 |
| TTCGCGTTA | 1.13 |
| CGCAAGGGTA | 3.84 |
| AAACTAAAGG | 1.02 |

| Sequence | switch fluorescence ratio |
| --- | --- |
| TGAGTGCATT | 0.992 |
| TCATTATACG | 1.03 |
| TCATGTAAAG | 0.97 |
| CTTTCACTTC | 1 |
| GGTTACCTAA | 0.979 |
| ATATTCAATG | 1.03 |
| TTTAACGTTA | 1.03 |
| GCAATCTGCA | 1.02 |
| TCCTAGCATC | 4.19 |
| AGGCAATAGG | 1.04 |
| CGTCACATTT | 0.959 |
| TGGTTGAAGG | 0.978 |
| GCTGTTATGC | 0.984 |
| TTATGGGTGT | 1.09 |
| CGCTTCGTCT | 1.13 |
| GAGTTTTCAA | 1.03 |
| TAATATTA | 1 |
| TTCTGGCGAT | 0.991 |
| CAAGAAAAAA | 1.01 |
| GTAGTGTGAA | 0.988 |
| AGAGCAGACG | 1.01 |
| ATGGTGTTGT | 1.21 |
| TAAAGCCACA | 1.03 |
| GTCTTAAACG | 1.06 |
| TATACTAGGT | 1.03 |

| Sequence | switch fluorescence ratio |
| --- | --- |
| ATGTAGATTG | 0.994 |
| TGCATTGGTC | 1.06 |
| AGAAACCAGA | 1.06 |
| CCGTGGGATT | 1.01 |
| AGAGGGAGTG | 1.01 |
| CGAGCGCTTA | 1.22 |
| CCTTTTAGTG | 1.03 |
| TCGAATCGGG | 1.02 |
| AACCATCGCG | 0.976 |
| AAGTTTATC | 1.01 |
| GAAAAGCTTG | 1.04 |
| TGCTTCTGGC | 0.986 |
| GGATCAGCCG | 0.919 |
| TTGTGAAAAT | 0.948 |
| AAGCACGGAT | 1.1 |
| GTCATGTATC | 1 |
| CTCCTCTTCT | 1.01 |
| ATTCTCTAAT | 0.984 |
| ATCAACTACC | 1.18 |
| CCCTTACT | 1.2 |
| GCAGATACGT | 1.21 |
| TAACAAGCAG | 1.05 |
| AACAGGTTAA | 1.01 |
| GATCGCATC | 2.14 |
| ACGATGGGGT | 1.03 |

| Sequence | switch fluorescence ratio |
| --- | --- |
| CACATAGAAG | 1.01 |
| AGCCGGACGG | 1.01 |
| ATTTATATAA | 1.01 |
| CAACGGGTGG | 1.06 |
| AAGTTATGGT | 1.01 |
| ACAAGGGGTT | 1.12 |
| AGTTTCCCAT | 0.99 |
| GAGACATCTT | 0.984 |
| ACCTCTGTGT | 1.03 |
| GAAGAAGGGG | 1.01 |
| AAATTACAGC | 1.02 |
| TTCGATGAAA | 1.02 |
| CGCATCACCT | 1.6 |
| TTCTTGTCAC | 1.08 |
| CCTGGGCGCG | 0.992 |
| TATGCGGGTC | 1.02 |
| CAAATTGAGG | 0.972 |
| TTAAAAGGAC | 1.07 |
| TTGAGCTGAT | 0.961 |
| TGGAACATTC | 1.06 |
| AAGGCATGGA | 1 |
| AAGAATCTCG | 1.05 |
| TTTCCGGAGT | 2.36 |
| GCATGAATTC | 0.975 |
| CTGTTTTCCC | 1 |

| Sequence | switch fluorescence ratio |
| --- | --- |
| GCATTACCGC | 1.16 |
| AGCGACCTCT | 1.04 |
| AATAGGTGTA | 1.07 |
| CTAAGAACAT | 1.02 |
| CAGGTAGCTA | 0.979 |
| TATTGTTAGA | 1.01 |
| AATGTAATCG | 0.992 |
| TCCAAGTTC | 0.985 |
| TAGTACGCTT | 1.03 |
| GATGCTAATT | 1 |
| CCCCCATAAT | 1.18 |
| GCCCGGACTT | 1.04 |
| CAGTGAAAAC | 1.02 |
| GCTAATACCG | 0.959 |
| ACAGGCTG | 0.99 |
| GCAGCTGGAG | 1.02 |
| TGCCCATGGC | 1 |
| CTGGATAGTT | 0.961 |
| CAGGACAT | 1.02 |
| CGGTCTTTTG | 0.997 |
| CACATGTGAT | 1.08 |
| GGCTCCGGGT | 1.12 |
| CTGGAAAATA | 0.986 |
| GCTTTTATGT | 0.96 |
| TTCAATTGAC | 1 |

| Sequence | switch fluorescence ratio |
| --- | --- |
| GGTTAAGCGA | 1.03 |
| AAGATTCTT | 0.963 |
| TTTAGACCGT | 0.962 |
| GCTTAGGGTC | 1.01 |
| GGTTATTGAT | 0.995 |
| CACGTTTTGG | 0.977 |
| CGCGCCGTAC | 1.15 |
| GACGCAGGAT | 1.83 |
| TCGACTCGTG | 0.994 |
| GGTACGGACA | 1.35 |
| TCACGCGTGC | 0.959 |
| GTAATAGAAG | 0.973 |
| GTTAGTAAGA | 1.04 |
| AACGGGGAGG | 1.03 |
| AGATATAAGG | 0.977 |
| GGGTGTATGT | 0.968 |
| ATCATGGAAA | 0.965 |
| TCGTTTCAAT | 1.95 |
| GTGCTGATTA | 0.994 |
| ATTGATACTC | 1.03 |
| GTCTGAGATT | 0.997 |
| ATGACCGAGT | 1.02 |
| TTAGGTCATT | 0.992 |
| GATCGTACTG | 1.02 |
| TCGCTTAGGC | 1.04 |

| Sequence | switch fluorescence ratio |
| --- | --- |
| ATCGAGATCA | 1.02 |
| GAGGTCTAAA | 0.988 |
| TAGGATCTTT | 1 |
| TTACTGCCGA | 1.04 |
| CCGGGAAATC | 1.3 |
| ATTTAGTATG | 0.954 |
| GGGATGGAGG | 0.964 |
| GATTTTAAG | 0.955 |
| GGTTTGCTTT | 1.01 |
| GCAGGTCTAC | 1.05 |
| TTTGCAACTT | 0.991 |
| TAACTCCTCA | 1.03 |
| CAAATTGTTT | 0.965 |
| TGGAACCTT | 1.67 |
| CGCCCGGCTT | 1.03 |
| CGAAGACTTG | 0.99 |
| TACTAAGGAT | 0.97 |
| AGGTTTTCCA | 1.01 |
| GGAGATATTG | 0.954 |
| GCGTCTGGGA | 1.02 |
| TCCTGATGAC | 1.1 |
| GGCCTTTTAT | 0.986 |
| GCAGCTTAAC | 2.72 |
| ACTGTGGATT | 0.987 |
| CGCGGCGTAC | 2.06 |

| Sequence | switch fluorescence ratio |
| --- | --- |
| AGCACTCGCT | 0.984 |
| ATCCTCCCTT | 1.3 |
| CAAACGCATT | 4.2 |
| AATGCCGTTA | 1.01 |
| TCGGCTCGTT | 1 |
| TGCCGCCCGT | 1.16 |
| GGTTGGAGAG | 0.966 |
| GCAAATCAGG | 1.02 |
| TCTATCGTAC | 1.24 |
| TAATTAACGT | 1.03 |
| GACGCCATAT | 4 |
| TATTGACATG | 1.04 |
| GGGTTCCTTA | 1 |
| TTGCTTTTCT | 1 |
| TAATATCGAA | 1.03 |
| ACTGCATTTT | 1.04 |
| TAAAACATAT | 0.988 |
| TGTGTTTTAC | 1.12 |
| CGGTACGCAC | 1.74 |
| ATCGGAAACG | 1.02 |
| TTATTCGTTA | 1.03 |
| GATTCCGATG | 1.39 |
| AAAACCTATG | 1.01 |
| TACTTACGTA | 1.44 |
| TAGTCTTCCC | 1.06 |
